# Reference: the supplement of paper PMC3334620
# The full ranking holds about 33,000 sequences; the median of “E-score (-0.5 to 0.5)” is about -0.053, and the highest 2% start at about 0.37. The list shows a part of the results.
# Biological target: Hap1 (UniProt P0CE41)
# Test: PBM E-score (8-mer binding enrichment) (E-score (-0.5 to 0.5)); higher = stronger / more preferred TF binding; most listed sequences are background and not binding sites
# Details: protein concentration: 200 nM; construct: GST-DNA-binding domain
# Outline: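 Universal all-10-mer Agilent arrays, double-stranded by primer extension on fresh or once-stripped slides, were probed with about 100-200 nM GST-tagged yeast transcription factors made by PURExpress. Fluorescent anti-GST detected bound protein, and masliner normalised the scans. E-scores from the Universal PBM Analysis Suite were given to each ungapped eight-base word pooled with its reverse complement.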
# Sequence of UniProt P0CE41 (P0CE41 whole entry): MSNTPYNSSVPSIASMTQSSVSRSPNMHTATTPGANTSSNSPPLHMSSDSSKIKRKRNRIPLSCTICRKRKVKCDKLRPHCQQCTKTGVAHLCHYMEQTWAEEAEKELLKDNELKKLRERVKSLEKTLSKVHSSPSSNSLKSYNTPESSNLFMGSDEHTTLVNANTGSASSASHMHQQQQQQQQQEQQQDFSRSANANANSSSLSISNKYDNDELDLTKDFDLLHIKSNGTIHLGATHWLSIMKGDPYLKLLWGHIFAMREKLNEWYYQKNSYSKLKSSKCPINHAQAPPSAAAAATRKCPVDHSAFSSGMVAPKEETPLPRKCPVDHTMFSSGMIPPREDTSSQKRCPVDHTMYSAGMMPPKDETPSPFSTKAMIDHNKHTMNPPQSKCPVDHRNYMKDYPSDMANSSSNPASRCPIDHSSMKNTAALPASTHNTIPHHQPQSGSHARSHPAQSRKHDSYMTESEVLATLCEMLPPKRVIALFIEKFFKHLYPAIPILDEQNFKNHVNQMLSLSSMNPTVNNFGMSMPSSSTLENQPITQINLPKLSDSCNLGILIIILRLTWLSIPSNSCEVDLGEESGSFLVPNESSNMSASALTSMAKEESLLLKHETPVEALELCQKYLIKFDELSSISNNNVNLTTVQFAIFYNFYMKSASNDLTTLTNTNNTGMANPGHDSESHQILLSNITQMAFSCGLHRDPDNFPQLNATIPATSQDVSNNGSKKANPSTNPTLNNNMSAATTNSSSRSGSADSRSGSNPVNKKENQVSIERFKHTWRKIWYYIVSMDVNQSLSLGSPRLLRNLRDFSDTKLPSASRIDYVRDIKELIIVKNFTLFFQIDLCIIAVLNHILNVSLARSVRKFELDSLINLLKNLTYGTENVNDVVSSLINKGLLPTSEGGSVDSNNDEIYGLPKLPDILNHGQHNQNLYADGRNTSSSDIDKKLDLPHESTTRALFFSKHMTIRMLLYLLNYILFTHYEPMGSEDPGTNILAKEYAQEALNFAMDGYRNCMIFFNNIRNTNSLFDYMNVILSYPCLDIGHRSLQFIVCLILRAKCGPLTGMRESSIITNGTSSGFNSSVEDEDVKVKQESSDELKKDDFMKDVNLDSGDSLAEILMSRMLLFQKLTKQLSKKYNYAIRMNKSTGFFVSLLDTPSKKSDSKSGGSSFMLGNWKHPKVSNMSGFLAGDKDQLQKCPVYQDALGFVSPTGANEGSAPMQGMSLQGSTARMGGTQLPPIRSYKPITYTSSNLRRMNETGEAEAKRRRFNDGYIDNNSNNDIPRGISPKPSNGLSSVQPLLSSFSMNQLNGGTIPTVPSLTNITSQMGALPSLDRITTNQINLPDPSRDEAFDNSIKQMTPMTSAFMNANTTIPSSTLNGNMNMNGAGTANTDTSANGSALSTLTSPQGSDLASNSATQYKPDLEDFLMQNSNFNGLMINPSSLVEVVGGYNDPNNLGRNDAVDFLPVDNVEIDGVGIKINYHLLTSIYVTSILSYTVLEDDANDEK
row,Sequence,PBM E-score
1,AGTATTGA,-0.215
2,CCTCTGCG,-0.16
3,AAACGACA,-0.19
4,CGAATTGA,0.037
5,GATTGCAC,0.0112
6,CTCCACCC,-0.119
7,TGTGAAAA,-0.223
8,ACATATAG,-0.101
9,AAGGAACT,-0.00211
10,GATCAGGA,-0.103
11,GATAGATA,0.101
12,AAGATGGT,-0.144
13,ACAGGACT,-0.0742
14,AGGGGTAA,-0.351
15,CGAGGCGC,0.135
16,AACACCGG,0.409
17,AACCGGGG,0.301
18,AATGACGC,-0.0995
19,GACGCGCA,0.0824
20,ATCGAGAG,-0.0935
21,AGTGAGCA,-0.28
22,CGACGCGC,0.192
23,CGAACCGC,0.188
24,TATCATAA,-0.104
25,CTTGTGCA,-0.164

row,Sequence,PBM E-score
1,AGAGCGTA,0.0207
2,TACGATGA,-0.175
3,ACCCTACC,-0.00602
4,CCTGTAGC,-0.0416
5,GCCTTAAC,-0.0709
6,CTCTGGGC,-0.0926
7,TGGACAAA,-0.0825
8,CCACTGAC,-0.186
9,CCGTTTCG,0.286
10,CGCACCGA,0.0479
11,ACAGTTCG,0.145
12,AATTCGAC,-0.342
13,CGTTGCAC,0.065
14,GATATCAC,0.0464
15,ACCCCCCG,0.226
16,ACTATTTC,0.18
17,GACTAGTA,-0.0995
18,GGCCAGCC,-0.0464
19,CACTGTCG,0.00621
20,ACAAGCTC,0.0249
21,CGAAGGAC,0.0895
22,ATTTATTA,0.129
23,TTTGAAAA,-0.171
24,AATCAGAA,-0.0191
25,AATTTGAG,-0.216

row,Sequence,PBM E-score
1,ATCTCCAT,0.082
2,GGACTGAC,0.0614
3,CAGAGCTA,-0.27
4,AAAAGATT,0.0312
5,CGCACAAG,-0.0355
6,GGTGCCTA,-0.0281
7,CAATACAA,-0.123
8,CACATTTC,0.144
9,CAGGGAGC,-0.271
10,CATAACTA,0.0324
11,GAGGAGAA,-0.0449
12,CGGGTACG,0.0983
13,CTTAGCCA,-0.199
14,CTCAGTGC,-0.0144
15,CCAGACTA,-0.327
16,CCCCCCAC,-0.203
17,TACATGTA,-0.00095
18,CCAATTAG,-0.108
19,ATGGGACC,-0.118
20,AGTAACAC,-0.00649
21,CTCGGGAA,0.306
22,CTAGCGCA,-0.254
23,CCGATCAA,0.195
24,GGATGAAC,0.129
25,CCCTAAAA,-0.0256

row,Sequence,PBM E-score
1,GTCGGCCA,0.165
2,ACCAAGCG,0.0447
3,ACGGCACA,-0.0818
4,AACGGACT,0.337
5,ACATCCAA,-0.173
6,GTCCTCCA,-0.034
7,GTTTATTA,0.219
8,CCTAGGAG,-0.216
9,ATCGGAAG,0.236
10,TAATAGTA,0.0798
11,GGGCGGAA,0.267
12,AAGTAGTG,-0.0883
13,ATTGTTGA,-0.174
14,ATAACACA,-0.24
15,ATGCAAGC,-0.1
16,GGTAGCAA,-0.17
17,AGTTAGAC,0.0109
18,ATAGATCA,-0.13
19,CTGGCAAC,-0.119
20,AGTCAGAA,-0.167
21,TATCTAGA,-0.24
22,CGGCACAC,0.103
23,ACAGCCTG,-0.221
24,CATGATGG,-0.328
25,GAAGCAGC,-0.0657

row,Sequence,PBM E-score
1,AGGTAGCC,-0.142
2,CATCGGCC,0.317
3,CATATTGC,-0.0347
4,ATCTAATC,0.038
5,CTTGAGTA,0.0976
6,ACAGAAGG,-0.226
7,CTAGTAAG,-0.205
8,ACGCTACT,0.108
9,ATTTATAA,0.104
10,CAGGCAGC,-0.07
11,AGATCATC,-0.0799
12,ACGAAGAG,-0.215
13,AGAGCTAA,-0.157
14,CCGGATGC,0.26
15,AAGGAGAA,-0.103
16,ATAGTTGA,-0.0113
17,ATACTCTG,-0.0685
18,ACCCAACA,-0.0786
19,CTTGATTC,-0.117
20,ATATGAGA,0.0229
21,CCCATTAG,-0.355
22,ACTAATTG,0.0402
23,ACGTCGAG,-0.282
24,GAACGTGC,-0.131
25,GAGAGTGC,-0.219

row,Sequence,PBM E-score
1,CGTGCAAA,-0.0966
2,GGCAAACA,-0.0204
3,CCAGATCC,0.0814
4,GGGCACAA,-0.0367
5,ACGGTCCG,0.316
6,GTCGAAGA,-0.0506
7,CGTAGACG,-0.0296
8,CGACGTAC,-0.0281
9,AACAACTC,-0.19
10,CGCCCTAC,-0.13
11,GCGTGTAA,-0.108
12,TCATATAA,-0.158
13,TAAATTCA,-0.165
14,CCACCAGA,-0.324
15,GTACATCA,0.019
16,ATCGAATA,-0.193
17,AGCTGCCT,-0.11
18,CTCTAGAA,-0.259
19,GGGAGAGA,-0.156
20,AGCTTTAG,-0.237
21,CCTTGGGC,-0.0386
22,ATAAACAT,0.0197
23,GAATTGGC,-0.0612
24,GTATGCAA,-0.15
25,ACCGTGTA,-0.124

row,Sequence,PBM E-score
1,CAATCCAC,-0.00364
2,TAAGCTGA,0.0387
3,AACCGGTA,0.331
4,TAACCTAA,-0.0745
5,CTGAAGAA,-0.27
6,CTCACCAC,-0.158
7,CCGTCTAA,0.16
8,CTGTAAGA,-0.217
9,ATGGCCAC,-0.195
10,TAAGAGGA,-0.0474
11,ATGAAAAT,-0.146
12,CAGTTCAG,-0.162
13,AAAATTAC,-0.122
14,AAGGCGAG,-0.225
15,GTTGAAAA,-0.0338
16,AGGCCATG,-0.153
17,GCAAAAAC,-0.00489
18,CTCAAGAC,-0.0626
19,ACCTATAG,-0.287
20,TCAGTAAA,-0.128
21,CCTCATAC,-0.102
22,GTTAACTA,0.194
